Out of some 150,000 compounds screened, about 540 (0.36%) showed an effect of 50% or more. This is one part of the list.
What follows are molecules tested on Plasmodium falciparum (assay: Primary screen in NF54 nanoGlo assay, in single point, at 2uM, 72h; a lower Z score goes with more inhibition). Details: timepoint 72 hour.
Type: functional, Erythrocyte

Row | SMILES | % Inhibition [%] | Z score
1 | CC(=O)NCC(C)(C)c1c(F)cccc1Cl | -3 | 0.37
2 | O=C(Cn1c(=O)n(Cc2ccccc2F)c(=O)c2sccc21)NC1CCCCC1 | -11 | 1.61
3 | CCc1ccccc1OCCN[C@H](C(N)=O)[C@@H](C)O | -8 | 1.69
4 | Cc1cc2c3c([nH]c2cc1S(=O)(=O)NCc1ccc(N(C)C)cc1)CC(C)(C)CC3=O | -19 | 3.75
5 | Cc1ccc(NC(=O)[C@@H]2CNC[C@H](C(=O)NCCn3cccn3)C2)cc1 | -4 | 0.91
6 | CN(C)c1ccccc1NC(=O)C1CCCC1 | 0 | -0.04
7 | CCC(=O)N1CCc2cn(C)c3cccc(c23)C1 | -9 | 1.46
8 | COc1ccc(/C=C/CN2CCN(c3ncc(Cl)cn3)CC2)cc1 | 17 | -2.13
9 | Cc1ccc(OS(=O)(=O)c2c[nH]c(C(=O)N3CCCC3)c2)cc1 | -29 | 3.4
10 | CC(C)C[C@@H](NC(=O)c1c(F)cccc1Cl)C(=O)O | -4 | 0.58
11 | CCc1ccnc(C(=O)N(Cc2cncs2)Cc2cncs2)c1 | -9 | 1.36
12 | O=C(c1ccc2c3c(cccc13)CC2)[C@H]1CCCN(C(=O)CCc2cccnc2)C1 | -8 | 0.96
13 | O=C(NCc1cccnc1)c1cccc(C(=O)NCc2cccnc2)n1 | -9 | 1.19
14 | CC1(C)CC(NC(=O)NCC2CCCS(=O)(=O)C2)c2ccccc21 (centres undefined) | -4 | 0.42
15 | Cc1ccc(N(C)C2CCN(C(=O)[C@H](C)n3cncn3)CC2)nn1 | -5 | 0.72
16 | Nc1c(-c2ccccc2C(F)(F)F)ncnc1N1CCCCC1 | -3 | 0.63
17 | CC(=O)NC1(C)CCC2(C)CC1(C)C(C)=NC2(C)C (centres undefined) | -4 | 0.59
18 | CCCC(C)CNC1(C)CCCCC1C(=O)OC (centres undefined) | -1 | 0.08
19 | COC[C@@H]1CC(F)(F)CN1C1CCN(C(=O)c2cncn2C)CC1 | -3 | 0.56
20 | CC[C@H](NC(=O)C1(C#N)CCCC1)C(=O)OC | -8 | 1.26
21 | Clc1cc(Br)ccc1OCCOCCNCc1ccccc1 | -6 | 0.79
22 | COc1nn(C)cc1NC(=O)NCC[C@H]1CCC(C)(C)CO1 | -2 | 0.29

Row | SMILES | % Inhibition [%] | Z score
23 | Cc1n[nH]cc1CNC1CCCCC1C(F)(F)F (centres undefined) | -2 | 0.41
24 | CCc1cnc(C)nc1N1CCN(C)[C@]2(CCC(=O)N(CC3CC3)CC2)C1 | -12 | 2.33
25 | Cc1ccc(CNC[C@H](O)c2cc(Cl)c3c(c2)OCCO3)nc1 | -8 | 1.22
26 | NC(=O)C1CCCC1NC(=O)c1ccc(OC2CCC2)cc1Cl (centres undefined) | -16 | 1.9
27 | CCOC(=O)c1c(F)cc(F)c(F)c1N | 1 | -0.08
28 | O=C(NCc1cncc(-c2ccco2)c1)c1ccncc1 | -9 | 1.77
29 | C1CCC2(C1)COCC[C@@H]2NCc1nnnn1C1CC1 | 3 | -0.52
30 | CC(C)n1cc(CN(C)C(=O)c2cnc(N3CCCC3)nc2)cn1 | -11 | 1.69
31 | COc1ccc2c(c1)CN(C(=O)Nc1ccc(CCC(C)C)cn1)C2 | -5 | 0.74
32 | O=C(c1cnn(Cc2ccccc2)c1)N1CCn2nc(CO)cc2C1 | 20 | -2.57
33 | O=C(Nc1cccc(Cl)c1)Nc1ccc2[nH]c(=O)oc2c1 | 8 | -1.2
34 | COC1CCN(C[C@H]2CCCCN(C(=O)OC(C)(C)C)C2)CC1 | -10 | 0.99
35 | O=C(c1c[nH]cn1)N1CCC(n2cc(CC3CCCCC3)nn2)CC1 | -11 | 1.46
36 | CN1CC(c2nc(C3CC(=O)N(c4ccccc4)C3)no2)CC1=O (centres undefined) | 9 | -1.29
37 | CC(=O)N(CCc1noc(C(C)C)n1)[C@H]1CCN(S(=O)(=O)N2CCOCC2)C1 | 5 | -0.51
38 | Cc1nc2ccc(NC(=O)CN3C(=O)NC(C)(C)C3=O)cc2s1 | -9 | 0.86
39 | c1ccc(COc2ccccc2OCCNC[C@H]2CCCO2)cc1 | 1 | -0.17
40 | CC(C)c1cc(C(=O)Nc2cnn(C)c2)n[nH]1 | -4 | 0.41
41 | COc1ccc(Cc2nc(CCn3cncn3)n(CC(C)(C)O)n2)cc1 | -5 | 0.61
42 | COc1c[nH]c(C(=O)NC[C@H](C)Cn2nc(C)cc2C(F)(F)F)cc1=O | 3 | -0.54
43 | O=C(Nc1ccc2c(c1)CCC2)N1CCC(O)CC1 | 0 | 0.06
44 | Cc1nnc(CC2CCN(C(=O)NCc3ccccc3)CC2)[nH]1 | 0 | 0.02

Row | SMILES | % Inhibition [%] | Z score
45 | CC(=O)c1ccc(N2CCN(C(=O)CC3CC4CCC3C4)CC2)cc1 (centres undefined) | -3 | 0.53
46 | Cc1nn(CC(F)F)cc1C(=O)N[C@H]1CCc2[nH]cnc2C1 | -4 | 0.61
47 | O=C1CN(C2CC2)C(=O)N1Cc1ccc(F)cc1Br | 1 | -0.09
48 | O=C(c1cc2ccccc2[nH]1)N1CC[C@@]2(C1)NC(=O)N(Cc1ccc(Cl)cc1)C2=O | -7 | 0.91
49 | Cc1cc(O)c([C@H](c2ccccc2)N2CCN(c3ccccc3F)CC2)c(=O)n1Cc1ccccn1 | 8 | -1.14
50 | COCCN1C(=O)N[C@@](Cc2ccc(F)cc2)(C2CCN(Cc3ccc(O)cc3)CC2)C1=O | 1 | -0.13
51 | Cc1csc(NC(=O)[C@H](C)Nc2ccccc2F)n1 | -45 | 5.32
52 | CC[C@@]1(CNC(=O)N2CC(OCc3nc(C)no3)C2)OCCc2ccccc21 | 2 | -0.42
53 | C[C@@H](Nc1ncnc2c1CN(C)CC2)c1ncccc1F | 0 | -0.01
54 | CC(C)n1cnnc1CC1CN(C(=O)Nc2cc(F)ccc2F)C1 | -1 | 0.2
55 | CN(CCC(=O)Nc1nccs1)Cc1cc(-c2cccs2)n[nH]1 | -13 | 1.65
56 | O=C(CN1CCC(O)CC1)Nc1cc(C2CC2)nn1-c1ccccc1 | -18 | 1.66
57 | O=C(OCC(=O)N1CCCC1)c1ccc2n[nH]c(=O)n2c1 | 29 | -3.92
58 | CC[C@@H](c1ccncc1)N(C)Cc1nnnn1-c1ccccc1 | -12 | 2.23
59 | C[C@H](NC(=O)N1CCC(CN2CCN(C)CC2)CC1)c1cc(F)cc(F)c1 | 7 | -0.91
60 | NC(=NCc1cc(Br)ccc1F)N1CCCC1 | -14 | 1.56
61 | Cn1ccc2cc(S(=O)(=O)N3CCN(C(=O)Nc4cc(F)ccc4F)CC3)ccc21 | -5 | 0.71
62 | CCOc1ccc(-n2cc3c(c2-c2ccccc2Cl)c(=O)n(-c2ccccc2)n3C)cc1 | 2 | -0.3
63 | Cc1ccc2ncc(C(=O)OCCOc3cccnc3)n2c1 | -12 | 1.2
64 | O=C1CCCC[C@@H](C(=O)NCCc2ccc3c(c2)OCO3)N1 | -3 | 0.48
65 | CN(C)c1noc([C@@H]2CCCN2CC(=O)Nc2nncs2)n1 | 4 | -0.55
66 | Oc1ccccc1C1=NN[C@@](O)(C(F)(F)C(F)F)C1 | -6 | 0.8

Row | SMILES | % Inhibition [%] | Z score
67 | CCC1CN(C(=O)C2C3CCCC32)CC(C)O1 (centres undefined) | -10 | 1.37
68 | C=C(C)CN(C)Cc1ccc(C#N)cc1 | -3 | 0.35
69 | O=C(Nc1nnn[nH]1)c1ccc(OCC(F)(F)C(F)F)nc1 | -9 | 1.28
70 | O=C(Nc1ccc(N2CCCC2=O)cc1)Nc1cccnc1 | 8 | -1.4
71 | Cc1c[nH]c(CNCC2(c3ccccc3)CC(O)(C(F)(F)F)C2)n1 (centres undefined) | -10 | 1.04
72 | CC1CCC(OC2CCN(C(=O)COC[C@H]3CCCO3)CC2)CC1 (some centres undefined) | 20 | -2.62
73 | CCN(CC)S(=O)(=O)c1cc2c(cc1NC1CCCC1)Oc1ccc(C)cc1NC2=O | -16 | 2.17
74 | Cn1cc(NC(=O)C2CC3CCC2O3)cc(Br)c1=O (centres undefined) | -5 | 0.67
75 | CC(NCC(=O)N(C)c1ccccc1)C1CCCO1 (centres undefined) | -6 | 0.96
76 | CS(=O)(=O)Nc1ccc(Br)cn1 | -15 | 1.92
77 | COc1cc(OC)cc(C(=O)N2CCCN(c3nc4cc(C)c(C)cc4nc3-c3ccccc3)CC2)c1 | 3 | -0.36
78 | CCc1ccc(-c2ccc(C(=O)N(C)[C@@H](C)CS(C)(=O)=O)o2)cc1 | -5 | 0.53
79 | CC(C)(CN)NS(=O)(=O)Cc1c(Cl)cccc1Cl | 9 | -1.39
80 | COc1ccc(NC(=O)C2CCCCC2)cc1S(=O)(=O)N1CCOCC1 | 3 | -0.4
81 | O=C(NCc1cnc2c(c1)CCC2)c1cnnn1-c1ccccc1 | -6 | 0.77
82 | O=C(NCc1nc2ccccc2n1C1CC1)C1CCC(O)CC1 (centres undefined) | -13 | 1.27
83 | CC1CN2CCCCC2CN1C(=O)COCC1CC1 (centres undefined) | -4 | 0.72
84 | CCn1ncnc1CNc1ccc(C(=O)NC(C)(C)CC)cc1 | -8 | 1.16
85 | O=C(Nc1ccnc(OCC(F)(F)C(F)F)c1)N1CC[C@H](O)C1 | -7 | 0.97
86 | Cc1ccsc1C(=O)NC[C@H](Cc1ccccc1)C(=O)O | -11 | 1.68
87 | Cc1ncc(CNC(=O)C(=O)Nc2ccccc2C(C)C)s1 | 4 | -0.44
